Data taken from PubChem BioAssay AID686978 (National Center for Advancing Translational Sciences (NCATS), 2013).
Values joined by “and” are separate entries in the source; they are usually repeats but may differ in a detail not shown here. Identical values can stand only once. Out of some 420,000 compounds screened, about 64,000 (15%) were called active. Inconclusive results, whose numbers are uncertain, are shown with a selection of clear calls. Calls come from the whole dose curve; as a rule, active = well fitted inhibition curve with a large enough effect; inconclusive = small, poorly fitted or top-dose-only effect; inactive = flat fitted curve, though single readings scatter. No potency is given beside an inconclusive call; the fits are too rough.

Experiment: qHTS for Inhibitors of human tyrosyl-DNA phosphodiesterase 1 (TDP1): qHTS in cells in absence of CPT; note: nearly all actives have a fitted effect of over 55% in size
Details: DT40 Tdp1-/- hTDP1 cells, no CPT, ATP luminescence, 48 h; activity change, negative = growth inhibition: at 46.2 µM (top of the series) unless noted
In short: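 DT40 Tdp1-/-;hTDP1 cells, no CPT (DMSO vehicle only), 400 cells/well; compounds pin-transferred; ≥48 hr, 37 °C; CellTiter-Glo 30 min RT dark, luminescence read.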
% is set by controls: 0 for no effect and ±100 for the full control effect; potency is the fitted concentration of half-maximal effect; tags give direction and shape of the fitted curve.

Structure (SMILES)	Potency	activity change, negative = growth inhibition
CCOC(=O)C1C(=O)OC(C)(C)C1C(CC)C(=O)c1ccccc1 (stereo not given)	inactive	–
COC(=O)Cc1c(C(=O)OC)nnn1-c1ccc(OC(F)(F)F)cc1	inactive	–
Cc1ccc(C2=NN(CC(=O)NCc3cccs3)C(=O)CC2)cc1	inactive	–
CC1CC(C)CN(c2ncnc3c2cnn3C)C1 (stereo not given)	inconclusive [inhibitor, partial curve]	–
Cn1c(CCN2CCN(c3ccccn3)CC2)nc2cc(NC(=O)COc3ccccc3)ccc21	active: 25.9 µM	–
CC(=O)Nc1ccc(NC(=O)CN2CCN(c3ccccn3)CC2)cc1	inactive	–
COc1cccc(NC(=O)C2CCC(CNS(=O)(=O)c3ccc4c(c3)CC(C)N4C(C)=O)CC2)c1 (stereo not given)	active: 23.1 µM and active: 18.4 µM	–
COc1ccc(S(=O)(=O)N2CCOCC2)cc1C(=O)Nc1nc2ccccc2s1	inactive	–
Cc1nc(Br)c(Br)n1Cc1ccccc1	active: 20.6 µM	–
COc1cc(OC)cc(-c2c(C#Cc3ccsc3)c3cc(Br)ccc3n2C)c1	inconclusive [inhibitor, single point]	–
Cc1ccc(Cc2c(C3CCCCC3)nc3cc(C)c(Br)c(C)n23)cc1	inconclusive [inhibitor, single point]	–
CCOc1cc(C(=O)Nc2ncccn2)cc(OCC)c1OCC	inactive	–
NC(CSCc1cccc(Br)c1)C(=O)O (stereo not given)	inconclusive [inhibitor, single point]	–
COC(=O)c1c(C)[nH]c(C(=O)CN2C(=O)NC3(CCOc4ccccc43)C2=O)c1C (stereo not given)	inconclusive [inhibitor, single point]	–
COc1cccc(/C=C/c2nc(C#N)c(NCCN(C)C)o2)c1	inconclusive [inhibitor, full curve, poor fit]	–
COc1ccccc1C(=O)NC(CCSC)C(=O)NC1CCCCCC1 (stereo not given)	inconclusive [inhibitor, single point]	–
COc1ccc(S(=O)(=O)NCCc2cc3ccc(C)c(C)c3[nH]c2=O)cc1	active: 8.2 µM and active: 23.1 µM	–
CC(C)c1ccccc1NC(=O)COC(=O)CCN1C(=O)/C(=C\C=C\c2ccccc2)SC1=S	inconclusive [inhibitor, single point]	–
CC(=O)c1ccc(OCC(=O)N2CCN(S(=O)(=O)c3ccc(Br)s3)CC2)cc1	inconclusive [inhibitor, partial curve]	–
COc1cccc(OCc2cc(C(=O)N(C)Cc3nc(C)cs3)no2)c1	inconclusive [inhibitor, single point]	–
COc1ccc(Cn2c(CCC(=O)NCc3cccc(Cl)c3)nc3cccnc32)cc1	inconclusive [inhibitor, single point]	–
CCOC(=O)c1[nH]c(C)c(CCC(=O)NCc2ccc(N(C)C)cc2)c1C	inactive	–
Cc1cccc(/C(N)=N/OC(=O)N2CCOCC2)c1	active: 18.4 µM	–
COc1ccc(S(=O)(=O)N(Cc2cc3cc(C)ccc3[nH]c2=O)CC2CCCO2)cc1 (stereo not given)	active: 20.6 µM	–
CCN(C(=N)N=C(N)N)c1ccccc1	active: 18.4 µM	–

Structure (SMILES)	Potency	activity change, negative = growth inhibition
COc1ccc(C(NC(=O)/C=C/c2ccco2)c2ccc(OC)cc2)cc1	inconclusive [inhibitor, single point]	–
O=C(C[C@H]1C(=O)N(C2CCCCC2)C[C@@H]1c1ccccc1)Nc1ccc(Br)cc1	inconclusive [inhibitor, single point]	–
Cn1c(=O)n(-c2ccc3c(c2)OCO3)c2nc(-c3ccccc3)nc(C(N)=O)c21	–	inconclusive: -32.8% [inhibitor]
Cc1ccc(S(=O)(=O)N(C)C)cc1NC(=O)COC(=O)CNC(=O)c1cccs1	inactive	–
CC1=C(C(=O)N(C)C)CC(CC(=O)NC(c2ccccc2)c2ccccc2)C(=O)N1Cc1ccc(F)cc1 (stereo not given)	active: 18.4 µM	–
c1csc(CCNc2ncnc3sc4c(c23)CCC4)c1	active: 8.2 µM	–
NC(=O)c1sc2nc3c(c(-c4ccc(Cl)cc4)c2c1N)CCCC3	inconclusive [inhibitor, single point]	–
COc1cccc(OC)c1NC(=O)C1CCCN1C(=O)Nc1cccc(Cl)c1 (stereo not given)	inactive	–
C=CCN1C(=O)c2ccc(C(=O)N(CC)CC(=O)Nc3cc(Cl)ccc3C)cc2C1=O	inactive	–
CN(Cc1ccco1)c1ncncc1-c1cccnc1	inactive	–
COc1ccc(OC)c(-c2nnc(SCC(=O)NC3CCCCC3)o2)c1	inconclusive [inhibitor, partial curve, poor fit]	–
CCCCN(C(=O)c1ccccc1OCc1ccc(F)cc1)c1c(N)n(CCC)c(=O)[nH]c1=O	inconclusive [inhibitor, single point]	–
O=S(=O)(Cc1ccc(Cl)cc1)c1ncc(CO)n1Cc1ccccc1	inconclusive [inhibitor, single point]	–
Cc1ccc(-c2ccc(C(=O)NCc3ccccc3)o2)c2ccccc12	inconclusive [inhibitor, single point]	–
COc1cccc(-c2nc(NCC3CCCO3)c3ccccc3n2)c1O (stereo not given)	inconclusive [inhibitor, single point]	–
CCCC1=Nc2cc(C(=O)NC3CCCC3)ccc2Sc2ccc(C)cc21	active: 1.03 µM	–
Cc1cc(C)cc(NC(=O)CSc2cc(C)[nH]c(=O)n2)c1	inconclusive [inhibitor, single point]	–
Cc1cccc(C(=O)N[C@H](C(=O)OCc2cc(=O)n3c(n2)sc2ccccc23)C(C)C)c1	inconclusive [inhibitor, single point]	–
CC(C)(C)c1nc2ccc([N+](=O)[O-])cc2[nH]1	inconclusive [inhibitor, single point]	–
CCN1CCCC1CNC(=O)c1cnn(-c2nccc(-c3ccco3)n2)c1C1CC1 (stereo not given)	inactive	–
O=c1oc2ccccc2cc1-c1nc2c(s1)CCc1ccccc1-2	inconclusive [inhibitor, single point]	–
CCOC(=O)C1(CCCc2ccccc2)CCN(C(=O)c2cc(C)nc(C)n2)CC1	inconclusive [inhibitor, single point]	–
CCOC(=O)[C@]12CCCC=C1N(Cc1ccc3c(c1)OCO3)C(=O)[C@H](CC(=O)N1CCC(c3ccccc3)CC1)C2	active: 20.6 µM	–
O=C(Nc1csnn1)c1csnn1	inactive	–
CC(C)CCNC(=O)CN(Cc1ccccc1Cl)C(=O)CCC(=O)Nc1ccccn1	inconclusive [inhibitor, full curve]	–

Structure (SMILES)	Potency	activity change, negative = growth inhibition
Cc1c(O)cc(O)c2c(=O)c(-c3ccc(O)cc3)coc12	inactive	–
CC(=O)Nc1ccc(-c2cc(C(=O)O)c3c(-c4ccccc4)[nH]nc3n2)cc1	inactive	–
NC(=O)CN1C(=O)C(O)(CC(=O)c2ccccc2O)c2ccccc21 (stereo not given)	inactive	–
COC(=O)c1ccc(C2=NOC(C)(c3sc(-c4ccc(Cl)cc4)nc3C)C2)cc1 (stereo not given)	inconclusive [inhibitor, single point]	–
CC(=O)c1ccc(S(=O)(=O)N2CCN(C)CC2)cc1	inactive	–
O=c1c2cc(NC(=S)N3CCCCCC3)ccc2nc2n1CCCCC2	–	inconclusive: -30.6% [inhibitor]
CNCCC=C1c2ccccc2CCc2ccccc21	active: 15 µM and active: 20.6 µM	–
CN(c1ccc(O)cc1)c1nc(-c2ccccc2)cs1	inconclusive [inhibitor, single point]	–
CCCCn1c(SCC(=O)Nc2cc(C)on2)nc2ccccc2c1=O	inactive	–
CCN1CCN(CCNC(=O)c2ccc(/C=C3\Sc4ccccc4N(Cc4ccccc4F)C3=O)cc2)CC1	inconclusive [inhibitor, single point]	–
CCCS(=O)(=O)NC(=O)C1(C)CCCN(C(=O)c2c(C)noc2C)C1 (stereo not given)	inactive	–
COc1ccc(-c2nc(Cn3c(SCc4ccccc4F)nc4ccncc43)c(C)o2)cc1	active: 14.6 µM	–
CCN(CC)CCNC(=O)c1ccc(CS(=O)(=O)c2ccc(Br)cc2)o1	inactive	–
O=C(CSc1ccccc1)Nc1nnc(-c2ccco2)o1	inconclusive [inhibitor, single point]	–
CCN(c1ccc(NC(=O)c2cccc(S(=O)(=O)N3CCN(C)CC3)c2)cc1)C(C)C	inconclusive [inhibitor, single point]	–
CCCc1c(NC(=O)Nc2ccc(F)cc2)cnn1-c1ccc(Cl)cc1	inconclusive [inhibitor, single point]	–
CCCCN(C=O)c1c(CC)nc2c(OCc3cc(Cl)cc(Cl)c3)cccn12	inconclusive [inhibitor, single point]	–
COc1ccc(C(=O)O)cc1S(=O)(=O)N(C)C	inactive	–
COc1ccc(C=CC(=O)c2ccc(OC)c(OC)c2)cc1O	active: 18.4 µM	–
O=C(COc1ccccc1Cl)NCc1ccccc1	inactive	–
CC1CCN(S(=O)(=O)c2cnc[nH]2)CC1	inactive	–
CC1=C(C(=O)N(C(C)C)C(C)C)CC(CC(=O)NCCCN(C)C)C(=O)N1CCCN1CCCC1=O (stereo not given)	inactive	–
Cc1cccc(OCCCSc2nc3ccc(C)cc3[nH]2)c1	–	inconclusive: -30.1% [inhibitor]
COc1cc(CCC(=O)N2CCN(c3ncccn3)CC2)cc(OC)c1OC	inactive	–
Cc1ccc(S(=O)(=O)NCCCNS(=O)(=O)c2ccc(C)cc2)cc1	inconclusive [inhibitor, partial curve]	–
